Measurements published in article PMC12136788.
Some of the results follow.

B1: chr4:100187679:100188167:-|CDS|ENSG00000145358|control|control|control (ssRNA)
RNA: GGGAGUUCUACAGUCCGACGAUCACACUUGUGUUUAAGCAGGAGAACUGCUCAUGGACUAGCUUCAGGGACUUUUUCUUUAGUAGAGGUCGCUUCUCCUCUGGUUUCAGGAGAACUCUGAUCCUCAGCUCAGGAUUUCGACUUCAACAGAGGAUUGAGCAUCA
B2: chr15:59031169:59031386:+|CDS|ENSG00000157450|unk|FALSE|unique (ssRNA)
RNA: GGGAGUUCUACAGUCCGACGAUCACACCAAGUGAUGAAGAUAAUGAUUCCUCUUUUAGUGAUUGUCUUUCUUCUCCUUCAUCUAGUCUGCAUUUUGGAGAUUCUGAUACUGUGACUUCAGAUGAGGAUAAAGAAGUCUCUGUACAACAGAGGAUUGAGCAUCA
B3: chr1:215620365:215620495:+|CDS|ENSG00000136636|unk|total|mutant (ssRNA)
RNA: GGGAGUUCUACAGUCCGACGAUCGGUUUUUCAGAAUCCAAGAAAAGGUCAUCAGAAGAUGAAAAUGAAAAUAAAACCGAGUUCCGGAAGAAAGGAGGAUUUGAAGGGGGAGGAUUCCUUGGAAGAAAGAAAGUUCCCUAUCUGCAACAGAGGAUUGAGCAUCA
B4: chr12:14497711:14497812:+|CDS|ENSG00000171681|unk|total|mutant (ssRNA)
RNA: GGGAGUUCUACAGUCCGACGAUCACAGCGUCUGCCCCCAGAAGCUGCCAGCACAUCUCUGCCUCAGAAGCCACACUUGAAGUCCGCACGCGUUCAGAGUCAAAAUGGCACCGUACUGUCAUGGAGUGUCCUGGAGGUGGAUCGCAACAGAGGAUUGAGCAUCA
B5: chr13:113500007:113500108:+|CDS|ENSG00000150403|unk|FALSE|unique (ssRNA)
RNA: GGGAGUUCUACAGUCCGACGAUCGAAGAGGCCAAUUCUAAGCAAAAUAUAACAAAACGAGAAGUGGAGGAUGACUUGGGUCUUAGCAUGCUGAUUGACUCCCAGAACAACCAGUAUAUUUUGACCAAGCCCAGAGAUUCAACCCAACAGAGGAUUGAGCAUCA
B6: chr6:122458524:122458701:-|CDS|ENSG00000111897|unk|FALSE|unique (ssRNA)
RNA: GGGAGUUCUACAGUCCGACGAUCGGAAGUGCCCCGUGUUUGCUAUGCCGAUGCUGUCCUAGUGGAAACAACUCCACUGUAACUAGAUUGAUCUAUGCACUUUUCUUGCUUGUUGGAGUAUGUGUAGCUUGUGUAAUGUUGAUACAACAGAGGAUUGAGCAUCA
B7: chr7:13894654:13894755:-|3pUTR|ENSG00000006468|msi1|FALSE|unique (ssRNA)
RNA: GGGAGUUCUACAGUCCGACGAUCUAUUCUCUUUCAUGCUGAAUUUACUAUGACCAUUUAUAAGCAGUGCAGUUAACUACAGAUAGCAUUUCAGGACAAAAUAGAUGACUCAAACCAUUUAUUGCUUAAAAAAUAGCUUACGCCCAACAGAGGAUUGAGCAUCA
B8: chr10:74118286:74118577:+|3pUTR|ENSG00000035403|msi1|total|mutant (ssRNA)
RNA: GGGAGUUCUACAGUCCGACGAUCGUAUUCUCAAACACAGUUACACUUGUGCACCCUCUAUCCCAACCGGCAGACUGGGUUUCCCGCCCAUGGACUUCACAUAAGCUCAGAAUCCAAGUGAACACCCGCCAGACACUCUGCUCUCAACAGAGGAUUGAGCAUCA
B9: chrX:100674576:100674677:+|3pUTR|ENSG00000102359|msi1|FALSE|bound_elsewhere (ssRNA)
RNA: GGGAGUUCUACAGUCCGACGAUCUUGCAAUCCACACCAAAUCAAUCUUUGAAAACAUUCCUCCAUUCGGUUCAUACAUACAGUAGAAACCACUGUGGCUGCCCUUAAUCCAGUGUGCUUAUAGGAAAUCAGUUAGCAGCUGACCAACAGAGGAUUGAGCAUCA
B10: ENSG00000033178:stop:overlap|stop_codon|ENSG00000033178|stop_codon|NA|stop_codon (ssRNA)
RNA: GGGAGUUCUACAGUCCGACGAUCCUAUUGAAAUUUAUGGCUGUCCGAAUAUUUGUUUGUUAAUACAUAAGUGUUCUGUAUAUUAGUAUUCUCUUAUCCUUCACAUCCAGCUUUGCUACUCUGUGGCAUUAGACAACUUUUUUCCAACAGAGGAUUGAGCAUCA
B11: chrX:48700291:48700392:+|CDS|ENSG00000101945|unk|FALSE|unique (ssRNA)
RNA: GGGAGUUCUACAGUCCGACGAUCGCUCCGUCGCUGGGAGCAGGAGCUCAAUGCCAAGCGCAGCCAUCUGGGACGCAUCACUGUAGAGAAUGAGGUGGACCUGGACGGCCCUCCGCGGGCCUUCGUGUACAUCAAUGAGUACCGCAACAGAGGAUUGAGCAUCA
B12: chr10:63621301:63621396:+|3pUTR|ENSG00000165476|msi1_unk|total|mutant (ssRNA)
RNA: GGGAGUUCUACAGUCCGACGAUCUGUAAGAUAAUAAAGCCGGUUUUAUAUAUUCUUUAAAUUUUUACUUAUAUAAUACUUUCCCGUUUUUCCACCAUCAGCUGAAAGUUUUUGAAACAAAUAUUUGAAAACCAGGUAUCCACACAACAGAGGAUUGAGCAUCA
B13: ENSG00000124766:be:win_851|CDS|ENSG00000124766|bound_else_gene|NA|bound_elsewhere_windowed (ssRNA)
RNA: GGGAGUUCUACAGUCCGACGAUCCGGGCAAGCACCUGGCGGAGAAGAAGGUGAAGCGCGUCUACCUGUUCGGCGGCCUGGGCACGUCGUCGUCGCCCGUGGGCGGCGUGGGCGCGGGAGCCGACCCCAGCGACCCCCUGGGCCCAACAGAGGAUUGAGCAUCA
B14: chr1:169376695:169376796:+|CDS|ENSG00000117475|unk|total|mutant (ssRNA)
RNA: GGGAGUUCUACAGUCCGACGAUCUCUUCAGCCCGGGAAAAUGCUCACUGAAAAAGCAAUGGAAGUUAAAGCUGUAAGAAUAUCCGUUCCCAAAGCUGCUAUAACUCAUGAUAUCCCCAACAAAAAUACAAAGGUUAAGUCUCUCAACAGAGGAUUGAGCAUCA

target: MSI1 full-length (mouse, UniProt Q61474 1-362); experiment: nsRBNS (natural sequence RNA bind-n-seq); RBNS binding buffer (assumed for nsRBNS): 25 mM Tris pH 7.5, 150 mM KCl, 3 mM MgCl2, 0.01% Triton X-100, 500 ug/ml BSA, 20 U/ml SUPERase-In, 4 C; UNK is unkempt and MSI1 is Musashi-1; names of the RNAs are library labels; protein concentration not given here; high values mean tight binding
Chain of UniProt Q61474 (Q61474 whole entry): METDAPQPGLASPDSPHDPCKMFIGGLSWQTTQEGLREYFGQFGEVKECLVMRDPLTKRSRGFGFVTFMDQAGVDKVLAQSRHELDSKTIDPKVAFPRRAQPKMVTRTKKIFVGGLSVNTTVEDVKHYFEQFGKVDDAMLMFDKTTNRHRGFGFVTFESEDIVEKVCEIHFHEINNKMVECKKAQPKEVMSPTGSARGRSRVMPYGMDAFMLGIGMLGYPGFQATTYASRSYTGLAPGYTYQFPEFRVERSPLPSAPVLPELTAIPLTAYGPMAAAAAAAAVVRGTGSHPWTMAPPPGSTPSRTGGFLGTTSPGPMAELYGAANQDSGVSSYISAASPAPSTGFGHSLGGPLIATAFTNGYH

Binder | binding signal [enrichment R]
B1 | 0.398
B2 | 0.352
B3 | 0.468
B4 | 0.412
B5 | 0.529
B6 | 1.09
B7 | 2.99
B8 | 0.409
B9 | 6.78
B10 | 0.607
B11 | 0.398
B12 | 1.51
B13 | 0.287
B14 | 0.307
